Read counts are not given, so values of variants with three or more changes are uncertain.
B1: CPEB3 Ribozyme (parent)
chain: UAACAGGGGGCCACAGCAGAAGCGUUCACGUCGCAGCCCCUGUCAGAUUCUGGUGAAUCUGCGAAUUCUGCUGUAUAUCUC

Variants of: B1
Experiment: self-cleavage, relative activity (ratio to wild type); higher = more cleavage; in vitro, sequencing
How it was run: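 After error-prone PCR and barcoding, CPEB3 ribozyme mutant libraries were transcribed with T7 RNA polymerase at 37°C for 5 hours, then given 15 min with DNase I before an EDTA stop, and they cleaved during both steps. Reverse transcription with template switching preceded Illumina sequencing. Relative activity divides a variant's cleaved/total read fraction by the unmutated ribozyme's. At least 5 reads were required per variant, and three batches were averaged.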

Variant	self-cleavage
A5G G6U A13G C23A A47G U48C A64U	0.04
A5G G6U A13U U41C	0.66
A5G G6U A13U U41C C62A	0.45
A5G G6U A15G U26A A35U	0.09
A5G G6U A45G C50G G61A U69C	0.03
A5G G6U A47G U80C	1.07
A5G G6U U51A U58C U80A	0.08
A5G G7A A13U U25A G36A A64U	0.09
A5G G7A A15C G30A G42A	0.1
A5G G7A A18G C23A U69A U72C U78C	0.04
A5G G7A A20U A57G U72A	0.09
A5G G7A A21G C40A U66C U78A	0.05
A5G G7A C81A	0.55
A5G G7A G9A	0.57
A5G G7A U54A A56G	0.31
A5G G7C A45G U58C A64G	0.05
A5G G7C G30A U43C U69C	0.06
A5G G7U A15U A47G A57G C71U	0.04
A5G G7U A20G U31A	0.1
A5G G7U A28U U69C	0.08
A5G G7U G9A A20G C71A U72C	0.06
A5G G7U G9C G16C U43A U66C U69A	0.06
A5G G7U U74C	0.6
A5G G8A A13U U31A U43A	0.12

Variant	self-cleavage
A5G G8A A15G U51C U69A	0.42
A5G G8A A15U A45U	0.34
A5G G8A A18G G63A	0.23
A5G G8A A21U U51A	0.07
A5G G8A A45G G52U U69A U76C	0.06
A5G G8A C23U U51A	0.36
A5G G8A U43A	0.4
A5G G8A U51A	0.17
A5G G8A U54G G73A	0.66
A5G G8C A20G U76A	0.31
A5G G8C A21G G30C U72C	0.08
A5G G8C G19A U49A A65G U76A	0.07
A5G G8C U67C A75C	0.05
A5G G8U A13G A20U G33C U54C A65G	0.04
A5G G8U A13G A21G U67G	0.07
A5G G8U A15G C32A U41C C44G	0.2
A5G G8U A15U U69A U72C	0.26
A5G G8U A18U	0.5
A5G G8U A20G U43C	0.09
A5G G8U U25A A35G	0.22
A5G G8U U41C	0.19
A5G G8U U43C A47G U60C	0.9
A5G G9A A13U A21G U26A U49C	0.32
A5G G9A A15G A18U A35G A77C U80A	0.07

Variant	self-cleavage
A5G G9A A18U U54C U72C U74A	0.06
A5G G9A A21G A45U U49C A65G	0.04
A5G G9A A21U G55U A56U U60A	0.14
A5G G9A A45U A77U	0.12
A5G G9A A56U	0.11
A5G G9A A77C	0.58
A5G G9A C14U U26C U31C A47G U58C	0.05
A5G G9A U26C C29G G33A C39U	0.06
A5G G9A U41C U54C	0.34
A5G G9A U51A G61A	0.23
A5G G9A U51A G73U	0.08
A5G G9A U54A	0.51
A5G G9C A20G A28G A47G	0
A5G G9C A28G A47G U60A	0.32
A5G G9C U58G U74A	0.08
A5G G9U A13G A28G C44U	0.33
A5G G9U A13G U48C G53A	0.04
A5G G9U A18U	0.36
A5G G9U A20G G24U U74C U78C	0.14
A5G G9U A21G C59A A65G	0.31
A5G G9U C34A	0.07
A5G G9U C39U	0.11
A5G G9U C40U A65G	0.04
A5G G9U G33A U43C U69A	0.15

Variant	self-cleavage
A5G G10A A13G A21G C50A U58C	0.06
A5G G10A A47C	0.07
A5G G10A C17U U54C	0.14
A5G G10A C23U A35G U43C A57G A65G	0.17
A5G G10A C27U C37A A45G U54A U67A	0.06
A5G G10A G53A U74A	0.94
A5G G10A U25C U58G C79A	0.24
A5G G10A U26C C27U U54C U66C U69C	0.06
A5G G10A U26G U78C	0.35
A5G G10C A13G U43A A64U A75U	0.06
A5G G10C A20G A65U U76A	0.13
A5G G10C A20G U60C G63A U72G U78C	0.08
A5G G10C A21G G22U A28C	0.1
A5G G16A U26C	0.18
A5G G16C A18G	0.67
A5G G16C U26C A77G	0.43
A5G G16U A21G A35G	0.44
A5G G16U A65G U78C	0.05
A5G G16U U49C A77G	0.11
A5G G19A A45G	0.21
A5G G19U U60C U78C	0.32
A5G G22A A75U	0.13
A5G G22A U58G	0.14
A5G G22A U60A U80A	0.08

Variant	self-cleavage
A5G G24A A28U A56U U66A	0.22
A5G G24A A35G A45G	0.3
A5G G24A A65G	0.39
A5G G24A G30U U41C U48C U54G A64U	0.07
A5G G24A G63A	0.33
A5G G24U U48C C79U U80G	0.47
A5G G30A A35U U43C U67A	0.62
A5G G30A G42U U58C U80C	0.23
A5G G30A U66C A75U	0.09
A5G G30C C40G	0.22
A5G G30U A57G U76C	0.49
A5G G30U U31C U74C	0.47
A5G G30U U49C G73A	0.13
A5G G33A A35G A56U U76C	0.07
A5G G33A A57U U66A A75G U80C	0.12
A5G G33A U60C A64G	0.07
A5G G33C A56U	0.25
A5G G33U U41G U58G	0.07
A5G G36A U58C	0.28
A5G G36U G42C U51A C71U U78C	0.13
A5G G36U U41A A45G A56G U80C	0.2
A5G G36U U54C U80C	0.28
A5G G42A U54C C68U	0.22
A5G G46A U72C U80C	0.35

Variant	self-cleavage
A5G G46C U72C A75C	0.05
A5G G53A U67C	0.33
A5G G53A U67G U72G	0.08
A5G G53C A75G	0.83
A5G G55A A57G	0.38
A5G G55A C71U	0.14
A5G G55C A56G U74G	0.78
A5G G61A A65G	0.23
A5G G70A U72C	0.11
A5G U25A A35U A45U	0.07
A5G U25A A35U U67G U74C	0.06
A5G U25A C62U	0.09
A5G U25A U26C	0.53
A5G U25A U26G U48A U51C A56U A75G	0
A5G U25A U48A A65G	0.26
A5G U25C C37A A47G U54C A56C U78C	0.04
A5G U25C C40U U51A U60C	0.34
A5G U25C U26C	0.48
A5G U25C U26C U43A A56U U80A	0.06
A5G U25C U41C	0.57
A5G U25C U43A U54C	0.09
A5G U25C U43C U49A G61C U74A	0.05
A5G U25C U49C U74C	0.45
A5G U25C U49G U54A U66C	0.2

Variant	self-cleavage
A5G U25C U54C	0.59
A5G U25C U54C A65G U78C	0.06
A5G U25C U58C	0.12
A5G U25C U66G U67C	0.1
A5G U25C U69G U72C A75U	0.05
A5G U25C U72A	0.18
A5G U25G A77G	0.37
A5G U25G U26C G30C A56G	0.2
A5G U25G U41A A64U	0.29
A5G U26A A35G	0.84
A5G U26A A35G A47G A57G A64G	0.59
A5G U26A A35U A45G U49C	0.07
A5G U26A A35U U41G A45G A65U	0.17
A5G U26A A77G	0.96
A5G U26A U31C A77G	0.1
A5G U26A U43A A57G C68U C81U	0.11
A5G U26A U51C	0.42
A5G U26A U54C	0.43
A5G U26A U72A	0.3
A5G U26A U80C	0.58
A5G U26C A35G U41G U80A	0.55
A5G U26C A35U U43C U54A	0.33
A5G U26C A45G	0.38

— the RNAGym collection of RNA variant scans (doi:10.1093/nar/gkz1192)
